Hit rate of the full screen: of about 320,000 compounds, about 7,600 (2.4%) were called active. Inconclusive means that the source gave no clear call. Such entries were picked first, then a sample of the others. The call rests on the fitted dose curve; in most records, active means well fitted activation curve with a large enough effect; inconclusive means small, poorly fitted or top-dose-only effect; inactive means no such curve, though single readings can be large or run the other way. Potencies of inconclusive entries are left out as doubtful fits.
Test: qHTS Assay for NPC1 Promoter Activators; further: nearly all actives have a fitted effect of over 60% in size
Conditions: Huh7 NPC1 promoter luciferase reporter, 24 h; series mostly up to 9.22 µM
From the text: NIH Chemical Genomics Center [NCGC] NIH Molecular Libraries Probe Production centers Network [MLPCN] MLPCN Grant: MH089375-01A1 Assay Submitter (PI): Yiannis A. Ioannou NCGC Assay Overview: Niemann Pick Type C (NPC) is a rare neurodegenerative lipidosis that is characterized by lipid storage in the endosomal/lysosomal system. Treatment modalities for this devastating disease are currently non-existent due to the severe obstacles associated with accessing the central nervous system with proteins or genes. The majority of mutations causing NPC disease are missense mutations that are distributed throughout the length of the NPC1 protein, with the most prevalent being the I1061T allele. Although NPC1 mutant proteins may be functional, they are typically trapped in the ER due to misfolding. […] We have developed and optimized a cell based luciferase reporter assay in 1536 well format for the identification of up-regulators of the mutant NPC1 promoter.
The NPC1 promoter is cloned in front of the luciferase reporter gene, therefore NPC promoter activation results in luciferase expression. Frozen stock of the NPC1 promoter transfected Huh7 cells were obtained from the laboratory of Dr. Yiannis Ioannou (The Mount Sinai School of Medicine, New York, NY). Cells were propagated and maintained at NCGC in medium containing RPMI-1640 supplemented with 10% FBS, 2mM L-glutamine, and 50ug/ml penicillin/streptomycin. Cells were harvested in and plated for assays in OP-MEM I reduced-serum medium supplemented with 10% FBS. The Amplite luciferase reporter gene assay kit was purchased from ABD Bioquest and prepared/stored according to manufacturers recommendations. qHTS Assay Setup: 1.#Dispensed 5ul of Huh7 cells stably expressing NPC1-luciferase at a density of 1500 cells per well 1536-well plates. 2.#Incubate cells at 37C, 5% CO2, and 95% humidity for 2 hours. 3.#Transferred 23nl per well of compound in DMSO solution. 4.#Incubated at 37C, 5% CO2, and 95% humidity for 24 hours. 5.#Dispensed 3ul per well of Amplite reagent(ABD Bioquest) per well. 6.#Incubate at ambient for 10 minutes. 7.#Read using the luminescence protocol on the ViewLux plate reader (Perkin Elmer).
Potency means the concentration at half of the fitted maximal effect; tags describe the fitted curve by direction and shape.

Row | SMILES | Potency
1 | CCOc1ccc2nc(N3CCC(C(=O)N4CCC5(CC4)OCCO5)CC3)sc2c1 | inconclusive [activator, partial curve]
2 | Cc1ccc(NN=C2C(=O)OC(C)(C)OC2=O)c(C)c1 | inconclusive [activator, single point]
3 | Cc1ccccc1NP(=O)(Oc1ccccc1F)Oc1ccccc1F | inactive
4 | CCNC(=O)O/N=C(\C)c1sc(-c2ccccc2)nc1C | inconclusive [activator, partial curve]
5 | CN1/C(=C\C=Nc2ccccc2)C(C)(C)c2ccccc21 | inactive
6 | CCCCN1C(=O)NC(=O)C2(Cc3c(nc4c(C)cccn4c3=O)N3CCc4ccccc4C32)C1=O (stereo unspecified) | inactive
7 | Cc1ccc(N/N=C/c2c(O)n(-c3ccccc3)c(=O)[nH]c2=O)cc1 | inactive
8 | Clc1ccccc1Nc1ncnc(-n2cccc2)n1 | active: 2.82 µM
9 | CCOc1ccc(/C=C/C(=O)C(C(N)=O)=C2SCCS2)cc1 | inconclusive [activator, single point]
10 | CNC(=O)Oc1cccc2ccccc12 | inactive
11 | O=C(Nc1ccc(COc2ccccc2)cc1)Oc1ccccc1N1CCOCC1 | inconclusive [activator, partial curve]
12 | CCCOC1CCCN(C(=O)CCc2nnc(Cc3cccc(C)c3)o2)C1 (stereo unspecified) | inconclusive [activator, single point]
13 | O=C(Cc1c(O)c2ccccc2oc1=O)c1ccc(F)cc1 | inconclusive [activator, partial curve]
14 | CN(C)C(=O)Oc1cccc(-c2cn3cc(Cl)ccc3n2)c1 | inconclusive [activator, partial curve]
15 | O=c1[nH]c(=O)n(Cc2ccc(F)cc2)c(O)c1/C=N/Nc1ccccc1 | inactive
16 | Cc1nc2ccc(NC(=O)c3ccc(Cl)s3)cc2s1 | active: 3.16 µM
17 | Cc1cc(C)cc(OCCOc2cccc(C=C3C(=O)NC(=O)NC3=O)c2)c1 | inconclusive [activator, single point]
18 | CN(C)C(=O)Oc1ccc(OCc2nc3ccccc3[nH]2)cc1 | inconclusive [activator, full curve]
19 | CCCc1nnc(NC(=O)CCC(=O)N2CCN(CCOC(c3ccccc3)c3ccccc3)CC2)s1 | inactive
20 | NS(=O)(=O)c1ccc(N=Nc2c(O)[nH]c(=S)[nH]c2=O)cc1 | inactive
21 | COc1ccc(N=Cc2c(O)n(Cc3ccccc3)c(=S)[nH]c2=O)c(OC)c1 | inconclusive [activator, single point]
22 | Cc1nc2ccc(N3CCN(C)CC3)cc2nc1C | inconclusive [activator, single point]
23 | COc1ccc(C(=O)NCc2cc3ccccc3n2C)cc1 | inconclusive [activator, partial curve]
24 | COc1ccc(-c2cc(=NCCC(=O)O)c3cc(C)ccc3o2)cc1 | inconclusive [activator, single point]
25 | C[C@@H]1O[C@@H](O[C@H]2C[C@@H](O)[C@]3(CO)[C@@H]4C(CC[C@]3(O)C2)[C@@]2(O)CC[C@H](C3COC(=O)C3)[C@@]2(C)C[C@H]4O)[C@H](O)[C@H](O)[C@H]1O (stereo partly specified) | inactive
26 | O=C(CSc1nnc(NC(=O)c2ccccc2F)s1)NCc1ccc(F)cc1 | inconclusive [activator, partial curve]

Row | SMILES | Potency
27 | Cc1cc(C(=O)Nc2ccc3c(c2)OCCO3)nn1C(C)(C)C | active: 4.47 µM
28 | O=c1c2ccccc2nc(Cc2ccccc2)n1-c1ccccc1 | inconclusive [activator, partial curve]
29 | O=c1[nH]c(=S)[nH]c(O)c1N=Nc1ccc(OC(F)F)cc1 | inconclusive [activator, full curve]
30 | CCCNC(=O)c1c(N)n(Cc2ccco2)c2nc3ccccc3nc12 | inactive
31 | C/C(=N\OC(=O)NC(C)C)c1sc(-c2ccc(Cl)cc2)nc1C | inconclusive [activator, partial curve]
32 | Cc1nn(CC(C)C)c(Cl)c1C(=O)NC1CCC(C)CC1 (stereo unspecified) | active: 2.24 µM
33 | CCOC(=O)c1sc(=NC(=O)c2ccc(C)c(C)c2)n(C)c1C | active: 3.16 µM
34 | O=C1Nc2ccccc2/C1=C/c1nc2ccccc2c(=O)n1-c1ccc(O)cc1 | inactive
35 | O=C(CN1CCCC1)Nc1ccc(NC(=O)Nc2ccccc2)cc1 | inconclusive [activator, partial curve]
36 | O=C(c1cc(-c2ccccc2)on1)N1CCC2(CC1)OCCO2 | inconclusive [activator, partial curve]
37 | Cn1cnc2cc(NC(=O)c3ccc(Cl)cc3)ccc21 | active: 2.82 µM
38 | FC(F)(F)c1ccccc1N1CC1c1ccncc1 (stereo unspecified) | inactive
39 | O=C(Nc1ccc(Cl)cc1)OC1CN2CCC1CC2 (stereo unspecified) | inconclusive [activator, partial curve]
40 | S=c1[nH]nc(Cn2c(-c3ccccn3)nc3ccccc32)n1-c1ccc2c(c1)OCCO2 | inconclusive [activator, partial curve]
41 | Cc1ccc(/C=C/C(=O)C2C(=O)c3ccccc3C2=O)cc1 | inconclusive [activator, full curve]
42 | CCC(C)(C)n1nnnc1CN1CCC(n2c(C)nc3cc(C(F)(F)F)ccc32)CC1 | inactive
43 | CCc1cc2c(=O)n(C(C)C(=O)OC3CCCCC3)cnc2s1 (stereo unspecified) | inconclusive [activator, partial curve]
44 | CC12CN3CC(C)(CN(C1)C3c1ccco1)C2=O (stereo unspecified) | inconclusive [activator, single point]
45 | CNc1cc(Cl)c2nonc2c1[N+](=O)[O-] | inactive
46 | N#C/C(=C\c1ccc([N+](=O)[O-])cc1)c1nc(C2CC2)cs1 | inconclusive [activator, single point]
47 | CCOc1ccc(NC(=O)c2ccc(NC(=O)COC(=O)Cc3ccccc3)cc2)cc1 | inconclusive [activator, partial curve]
48 | Cc1cc(/C=C2\C(=O)NC(=S)N(C)C2=O)c(C)n1C1CCCCC1 | inactive
49 | CCCCN1CC(O)=C(c2nc3ccccc3s2)C1=N | inconclusive [activator, partial curve]
50 | ClC(Cl)=C(c1ccc(Cl)cc1)c1ccc(Cl)cc1 | inactive
51 | CN(C)C(=O)Oc1ccc(-c2cn3cc(C(F)(F)F)ccc3n2)cc1 | inconclusive [activator, partial curve]
52 | CC(c1nccs1)N(C)C(=O)c1cn(Cc2cccc3ccccc23)nn1 (stereo unspecified) | inconclusive [activator, partial curve]

Row | SMILES | Potency
53 | O=C(Oc1ccc2ccccc2c1Cl)N1CCCC1 | active: 2.82 µM
54 | CC(C)N(Cc1nccn1C)C(=O)CCc1nnc(CCCc2ccccc2)o1 | inconclusive [activator, single point]
55 | CCn1c(O)c(N=Nc2cccc(S(=O)(=O)N3CCOCC3)c2)c(=O)n(CC)c1=S | inactive
56 | C/C(=N\NC(=O)c1ccccc1O)c1c(O)n(Cc2ccccc2)c(=O)[nH]c1=O | inactive
57 | COc1ccc(CNC(=O)c2ccc(C(C)C)cc2)cc1 | active: 3.55 µM
58 | CCC(=O)c1ccc(OC(=O)N(C)c2ccccc2)cc1 | active: 2.82 µM
59 | CCC(=NCc1cc(OC)cc(OC)c1)c1c(O)n(C)c(=O)n(C)c1=O | inactive
60 | CCn1c(C)c(C(=O)Nc2ccc(OC)cc2)c2cc(OC)ccc21 | inconclusive [activator, single point]
61 | CC(C)Oc1ccc(CNC(=O)Oc2ccccc2)cc1 | active: 3.55 µM
62 | COc1ccc(NC(=O)CCCn2c(=O)oc3ccccc32)cc1Cl | inconclusive [activator, single point]
63 | COC(=O)c1c(C)n(Cc2ccccc2)c2ccc(O)cc12 | inactive
64 | CCOc1ccc(NC(=O)C(=S)NC2CCCCC2)cc1 | inconclusive [activator, single point]
65 | Nc1c(Br)cc([N+](=O)[O-])cc1[N+](=O)[O-] | inactive
66 | CC(C)(C)c1ccc(OC(=O)N2CCCCC2)cc1 | inconclusive [activator, partial curve]
67 | CCOc1ccc(C2CC(c3c(O)n(C)c(=O)n(C)c3=O)=NN2)cc1 (stereo unspecified) | inconclusive [activator, partial curve]
68 | Nc1cnn(-c2ccccc2)c(=O)c1Cl | inactive
69 | Clc1cccc(Cl)c1Cn1nnc(N2CCCC2)n1 | inconclusive [activator, single point]
70 | CC(=O)n1cc(C=C2C(=O)NC(=O)NC2=O)c2ccccc21 | inactive
71 | CC(C)(C)c1ccc(C(=O)C2CCCN(Cc3ccon3)C2)cc1 (stereo unspecified) | inconclusive [activator, single point]
72 | C#CCN1C(=O)S/C(=C\c2ccc(N3CCOCC3)cc2C)C1=O | inconclusive [activator, single point]
73 | O=C1NC(=O)C(=Cc2cc3c(cc2[N+](=O)[O-])OCO3)C(=O)N1 | inactive
74 | Clc1cccc(/C=N\Nc2nccs2)c1 | inconclusive [activator, partial curve]
75 | CC(Cc1ccccc1)/[N+]([O-])=C\c1ccc(C(F)(F)F)cc1 (stereo unspecified) | inconclusive [activator, partial curve]
76 | O=C(CSc1ccccc1)N1CCC2(CC1)OCCO2 | inconclusive [activator, partial curve]

— PubChem BioAssay AID485313 (National Center for Advancing Translational Sciences (NCATS), 2010)
